US20250304717A1, “CAMPTOTHECIN DERIVATIVE AND LIGAND-DRUG CONJUGATE” (HAINAN SIMCERE ZAIMING PHARMACEUTICAL CO., LTD., priority 2022, published 2025)

B1: ADC-L1-14-P1-3 (conjugate)
heavy: EVQLVQSGAEVKKPGASVKVSCKASGYTFTRNFMHWVRQAPGQGLEWMGWIYPGDGETEYAQKFQGRVTITADTSTSTAYMELSSLRSEDTAVYYCARGVYGGFAGGYFDFWGQGTLVTVSSASTKGPSVFPLAPSSKSTSGGTAALGCLVKDYFPEPVTVSWNSGALTSGVHTFPAVLQSSGLYSLSSVVTVPSSSLGTQTYICNVNHKPSNTKVDKRV[human IgG1 Fc omitted]
light: DIQMTQSPSSLSASVGDRVTITCKASQNIYKNLAWYQQKPGKAPKLLIYDANTLQTGVPSRFSGSGSGSDFTLTISSLQPEDFATYFCQQYYSGWAFGQGTKVEIKRTVAAPSVFIFPPSDEQLKSGTASVVCLLNNFYPREAKVQWKVDNALQSGNSQESVTEQDSKDSTYSLSSTLTLSKADYEKHKVYACEVTHQGLSSPVTKSFNRGEC
B2: ADC-L1-19-9 (conjugate)
heavy: EVQLLESGGGLVQPGGSLRLSCAASGFTFSNYAMSWVRQAPGKGLEWVSSISHNSGSTYYADSVKGRFTISRDNSKNTLYLQMNSLRAEDTAVYYCAKFISARKSLGRSYSNGMDVWGQGTLVTVSS[human IgG1 constant region omitted]
light: QSVLTQPPSASGTPGQRVTISCTGSSSNIGSNDVTWYQQLPGTAPKLLIYADSKRPSGVPDRFSGSKSGTSASLAISGLRSEDEADYYCGTWDYSLSGYVFGGGTKLTVLRTVAAPSVFIFPPSDEQLKSGTASVVCLLNNFYPREAKVQWKVDNALQSGNSQESVTEQDSKDSTYSLSSTLTLSKADYEKHKVYACEVTHQGLSSPVTKSFNRGEC
B3: ADC-L1-19-P1-9 (conjugate)
heavy: B2 heavy
light: B2 light
B4: ADC-L1-19-10 (conjugate)
heavy: QVQLRESGPGLVKPSETLSLTCTVSGFDISSYYMSWVRQPPGKGLEWIGAIGISGNAYYASWAKSRVTISRDTSKNQFSLKLSSVTAADTAVYYCARDHPTYGMDLWGPGTLVTVSS[human IgG1 constant region omitted]
light: SYELTQPPSVSVAPGKTARITCEGNNIGSKAVHWYQQKPGQAPVLVIYDDDERPSGIPERFSGSNSGNTATLTISRVEAGDEADYYCQVWDSSAYVFGGGTKLTVLRTVAAPSVFIFPPSDEQLKSGTASVVCLLNNFYPREAKVQWKVDNALQSGNSQESVTEQDSKDSTYSLSSTLTLSKADYEKHKVYACEVTHQGLSSPVTKSFNRGEC
B5: ADC-L1-19-P1-10 (conjugate)
heavy: B4 heavy
light: B4 light
B6: ADC-L1-19-8 (conjugate)
heavy: QVQLQESGPGLVKPSQTLSLTCTVSGYAFTAYNIHWVRQAPGQGLEWMGSFDPYDGGSSYNQKFKDRLTISKDTSKNQVVLTMTNMDPVDTATYYCARGWYYFDYWGHGTLVTVSS[human IgG1 constant region omitted]
light: DIVMTQTPLSLPVTPGEPASISCRASKSISKYLAWYQQKPGQAPRLLIYSGSTLQSGIPPRFSGSGYGTDFTLTINNIESEDAAYYFCQQHDESPYTFGEGTKVEIKRTVAAPSVFIFPPSDEQLKSGTASVVCLLNNFYPREAKVQWKVDNALQSGNSQESVTEQDSKDSTYSLSSTLTLSKADYEKHKVYACEVTHQGLSSPVTKSFNRGEC
B7: ADC-L1-19-P1-8 (conjugate)
heavy: B6 heavy
light: B6 light

How the values were obtained:
Format in all cases: cell-based, human
PA-1 cells = assay: Anti-tumor cell proliferation activity of anti-CDH6-ADC, PA-1; conditions: 5 days
From the text: (§1) Cell and material: The human ovarian cancer cell line OVCAR3 (CDH6 high-expression cell strain) was purchased from ATCC, the human ovarian teratoma cell line PA-1 was purchased from ATCC, bovine serum, 1640 medium (Gibco #A10491-01), MEM medium (Gibco #11095-080), MEM NEAA (Gibco #11140-050), sodium pyruvate (Gibco #11360-070), penicillin-streptomycin, and 0.25% Trypsin-EDTA (Gibco #25200-056) were purchased from Gibco, bovine insulin was purchased from Solarbio, 96 well plates were purchased from Corning (U.S.), and Cell-Titer Glo reagent was purchased from Promega (U.S.).
(§2) Cell culture: OVCAR3 cells were cultured with a 1640 medium containing 20% fetal bovine serum +2 μg/mL bovine insulin+1% penicillin-streptomycin at 37° C. with 5% CO2, and PA-1 cells were cultured with an MEM medium containing 10% fetal bovine serum+1% MEM NEAA+1% sodium pyruvate+1% penicillin-streptomycin at 37° C. with 5% CO2. Cells at logarithmic growth phase were available for the experiment.
(§3) Cell proliferation activity test: The Cell-Titer Glo reagent was used to test ADC for inhibitory activity on proliferation of both OVCAR3 and PA-1 cell strains. OVCAR3 and PA-1 cells were digested and pipetted in cell culture flasks, and resuspended using the corresponding fresh medium. The cell density was adjusted. OVCAR3 cells (5000 per well) and PA-1 (800 per well) were seeded on 96-well plates and incubated at 37° C. with 5% CO2 for 24 h. After the ADC solution to be detected was added (the ADC was diluted with the medium for the corresponding cells described above, the ADC concentration was adjusted to 100 nM, then the medium was continuously and serially diluted 3-fold to give a total of 8 concentrations, and 10 μL of the prepared ADC solution was transferred to the 96-well plate so that the final concentration was 0-10 nM), the mixture was incubated at 37° C. with 5% CO2. OVCAR3 cells and PA-1 cells were cultured for 5 days. The Cell-Titer Glo reagent was added and the cell activity was measured.
(§4) A negative control group and a positive control group were respectively used as Bottom and Top. The negative control group was not added with cells, only added with the culture medium in the same volume, and other operations were consistent with those of the experimental group. The positive control group was not added with the test drug, and other operations were consistent with those of the experimental group.
(§5) Data analysis: % Inhibition was calculated, and compound IC50 was fitted.
(§6) Signal referred to the signal value of the experimental group, Bottom referred to the average signal value of the negative control group, and Top referred to the average signal value of the positive control group.

OVCAR3 cells = assay: Anti-tumor cell proliferation activity of anti-CDH6-ADC, OVCAR3; conditions: 5 days
From the text: as §1, §2, §3, §4, §5, §6

ROR1 negative cells MCF7 = assay: Bystander effect test of anti-ROR1-ADC; conditions: for Maximum inhibition rate (%): supernatant from hROR1-MCF7, MCF7 negative cell; for IC50: supernatant from hROR1-MCF7 incubated with ADC 5 days, then 5 days on MCF7, read-out: IC50 (negative cell)
Experimental: Cell culture: hROR1-MCF7 cells and MCF7 cells were cultured with a DMEM medium containing 10% fetal bovine serum+1% penicillin-streptomycin at 37° C. with 5% CO2. Cells at logarithmic growth phase were available for the experiment.
Bystander effect detection: The supernatant after incubation of the ADC to be detected with ROR1 positive cells hROR1-MCF7 was transferred to ROR1 negative cells MCF7 for further incubation, and the Cell-Titer Glo reagent was used for detecting the influence of the supernatant on the cell proliferation activity of MCF7, so that the bystander effect of the ADC was reflected. hROR1-MCF7 cells were digested and pipetted in cell culture flasks, and resuspended using the corresponding fresh medium. The cell density was adjusted. The cells were seeded on a 96-well plate at 20000 cells/180 L/well and incubated at 37° C. with 5% CO2 overnight. The ADC concentration was diluted to 5000 nM with a complete medium and subjected to 3-fold gradient dilution to give a total of 8 concentration gradients, and then 20 μL of an ADC diluted solution was transferred to the 96-well plate, i.e., the initial concentration of the ADC was 500 nM. The 96-well plate was incubated at 37° C. with 5% CO2 for 5 days. 150 μL of the supernatant in the hROR1-MCF7 cell culture plate was pipetted and transferred to the MCF7 cell plate (1500 cells/50 μL/well) seeded one day in advance, and incubated at 37° C. with 5% CO2 for 5 days. The Cell-Titer Glo reagent was added and the cell activity was measured.
as §4
(§7) % Inhibition was calculated and fitted to give compound IC50.
as §6

hROR1-MCF7 cells = assay: Anti-tumor cell proliferation activity of anti-ROR1-ADC, hROR1-MCF7; conditions: 5 days
Experimental: Cell and material: The human breast cancer cell line hROR1-MCF7 was constructed by Simcere Zaiming, DMEM medium (Gibco #11995-065), penicillin-streptomycin (Gibco #15140-122), and 0.25% Trypsin-EDTA (Gibco #25200-056) were purchased from Gibco (U.S.), 96 well plates (Greiner Bio-one #655098) was purchased from Corning (U.S.), and Cell-Titer Glo reagent (Promega #G7568) was purchased from Promega (U.S.).
Cell culture: hROR1-MCF7 cells were cultured with a DMEM medium containing 10% fetal bovine serum+1% penicillin-streptomycin at 37° C. with 5% CO2. Cells at logarithmic growth phase were available for the experiment.
Cell proliferation activity test: The Cell-Titer Glo reagent was used to test ADC for inhibitory activity on proliferation of hROR1-MCF7 cell strains. hROR1-MCF7 cells were digested and pipetted in cell culture flasks, and resuspended using the corresponding fresh medium. The cell density was adjusted. hROR1-MCF7 cells were seeded on a 96-well plate at 1700 cells/90 μL/well and incubated at 37° C. with 5% CO2 overnight. The ADC concentration was diluted to 500 nM with a complete medium and subjected to 4-fold gradient dilution to give a total of 9 concentration gradients, and then 10 μL of an ADC diluted solution was transferred to the 96-well plate, i.e., the initial final concentration of the ADC was 50 nM. The 96-well plate was incubated at 37° C. with 5% CO2 for 5 days. The Cell-Titer Glo reagent was added and the cell activity was measured.
as §4, §7, §6

Molecule	IC50 (PA-1 cells) [nM]	IC50 (OVCAR3 cells) [nM]	Maximum inhibition rate (%) (ROR1 negative cells MCF7)	IC50 (ROR1 negative cells MCF7) [nM]	IC50 (hROR1-MCF7 cells) [nM]	hROR1-MCF7 Maximum inhibition rate (%) (hROR1-MCF7 cells)
B1	0.063	0.012	–	–	–	–
B2	–	–	57.76	0.1	0.31	42.34
B3	–	–	53.70	0.07	0.22	44.73
B4	–	–	61.37	0.02	0.04	37.45
B5	–	–	57.86	0.03	0.03	44.77
B6	–	–	56.83	0.03	0.18	39.88
B7	–	–	53.62	0.05	0.1	38.61
